SMILES strings stand for the structures. Among all 310,000 compounds or so, about 2,200 (0.71%) showed an effect of 50% or more. The effect is printed as a negative number. Some of the results follow.

In this experiment the target is human ether-à-go-go-related gene (hERG) potassium channel (human, UniProt Q12809). Briefly: primary screen, population patch clamp on CHO cells stably expressing hERG.
Sequence of human ether-à-go-go-related gene (hERG) potassium channel (Q12809 whole entry, looked up): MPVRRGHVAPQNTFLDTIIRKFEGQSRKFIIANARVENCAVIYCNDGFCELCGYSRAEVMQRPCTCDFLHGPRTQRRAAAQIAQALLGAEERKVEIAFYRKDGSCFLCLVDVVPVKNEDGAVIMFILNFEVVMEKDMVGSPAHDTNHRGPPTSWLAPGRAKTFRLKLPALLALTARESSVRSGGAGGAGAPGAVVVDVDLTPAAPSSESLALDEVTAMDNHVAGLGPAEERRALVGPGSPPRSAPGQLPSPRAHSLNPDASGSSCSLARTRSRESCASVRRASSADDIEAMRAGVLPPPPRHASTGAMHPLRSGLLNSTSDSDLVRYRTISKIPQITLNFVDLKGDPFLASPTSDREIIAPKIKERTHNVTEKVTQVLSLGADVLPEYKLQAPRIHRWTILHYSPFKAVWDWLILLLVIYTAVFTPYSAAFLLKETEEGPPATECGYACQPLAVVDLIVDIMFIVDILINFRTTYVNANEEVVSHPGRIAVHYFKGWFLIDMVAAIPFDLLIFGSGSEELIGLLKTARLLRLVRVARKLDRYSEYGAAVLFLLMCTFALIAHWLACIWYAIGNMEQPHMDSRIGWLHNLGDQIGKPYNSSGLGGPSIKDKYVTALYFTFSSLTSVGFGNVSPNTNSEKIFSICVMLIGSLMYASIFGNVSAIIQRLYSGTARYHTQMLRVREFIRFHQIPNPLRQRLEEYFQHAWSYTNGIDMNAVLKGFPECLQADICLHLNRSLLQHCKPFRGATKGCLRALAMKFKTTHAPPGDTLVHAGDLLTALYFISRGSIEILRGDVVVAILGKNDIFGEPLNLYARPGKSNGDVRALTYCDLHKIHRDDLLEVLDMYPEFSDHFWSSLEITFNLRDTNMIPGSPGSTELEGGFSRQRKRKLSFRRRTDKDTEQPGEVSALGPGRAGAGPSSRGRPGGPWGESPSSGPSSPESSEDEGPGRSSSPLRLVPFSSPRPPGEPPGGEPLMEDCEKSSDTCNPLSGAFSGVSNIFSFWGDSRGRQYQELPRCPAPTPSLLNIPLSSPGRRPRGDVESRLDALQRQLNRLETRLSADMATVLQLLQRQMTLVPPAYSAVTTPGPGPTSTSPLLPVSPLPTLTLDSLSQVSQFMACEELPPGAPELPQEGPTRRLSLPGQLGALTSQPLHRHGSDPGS
For the compound `CCOC(=O)c1csc(N/N=C2\CCCc3ccccc32)n1`, the “hERG current change (%, negative = inhibition) at 1uM” value is listed as 9.49%.

In the case of `O=C(O)COc1ccc(Br)cc1/C=C1/SC(=O)N(CC(=O)N2CCCC2)C1=O`, the “hERG current change (%, negative = inhibition) at 1uM” value was found to be 11.5%.

On to `CC1CCCCC1NC(=O)COc1ccc(-n2cnnn2)cc1` (stereo not drawn), for which the “hERG current change (%, negative = inhibition) at 1uM” value is recorded as 1.26%.

With `Cc1cc(C)cc(OCc2nc3ncc(Br)cc3[nH]2)c1.Cl`, the “hERG current change (%, negative = inhibition) at 1uM” value is listed as 13%.

`CC(=O)Cn1c(CN2CCN(C(=O)c3ccco3)CC2)nc2c1c(=O)n(C)c(=O)n2C`: the “hERG current change (%, negative = inhibition) at 1uM” value was 16.9%.

Turning to `COc1ccc(CSCC(=O)Nc2ccccc2)cc1[N+](=O)[O-]`, the “hERG current change (%, negative = inhibition) at 1uM” value is 9.15%.

`S=c1nc[nH]c2nc[nH]c12`: the “hERG current change (%, negative = inhibition) at 1uM” value was found to be 15.1%.

Take `Cn1c(=O)oc2cc(S(=O)(=O)NC3CCCCCCC3)ccc21`: the “hERG current change (%, negative = inhibition) at 1uM” value is reported as -5.78%.

With `Cc1cc(C)cc(N(CC(=O)Nc2cccc(C)n2)S(=O)(=O)c2c(C)noc2C)c1`, the “hERG current change (%, negative = inhibition) at 1uM” value is recorded as -1.31%.

For the compound `O=C(NCCCN1CCN(CCCNC(=O)c2cc([N+](=O)[O-])ccc2Cl)CC1)c1cc([N+](=O)[O-])ccc1Cl`, the “hERG current change (%, negative = inhibition) at 1uM” value is reported as 2.67%.

As to `O=C(NCCc1ccc(Cl)cc1)C1CCCN1C(=O)NCc1ccccc1` (stereo not drawn), the “hERG current change (%, negative = inhibition) at 1uM” value stood at 8.15%.

Regarding `FC(F)(F)c1nnc2sc(-c3ccco3)nn12`, the “hERG current change (%, negative = inhibition) at 1uM” value came out at 13.2%.

On to `Cc1ccc(NC(=O)COC(=O)c2ccc(-n3cccn3)cc2)cc1C`, for which the “hERG current change (%, negative = inhibition) at 1uM” value worked out at 3.18%.

In the case of `COC1(OC)N=C(N)C2(C#N)C(c3ccccc3)NC(C)=CC12C#N` (stereo not drawn), the “hERG current change (%, negative = inhibition) at 1uM” value came to 4.43%.

For the compound `O=C(COC(=O)c1ccccc1OCc1ccccc1Cl)NC1CC1`, the “hERG current change (%, negative = inhibition) at 1uM” value came to 5.78%.

On to `CCOC(=O)CNC(=O)CSc1nnc(-c2ccncc2)n1-c1ccc(Cl)cc1`, for which the “hERG current change (%, negative = inhibition) at 1uM” value was determined as 4.07%.

Regarding `COCCNC(=O)CN(c1ccc(F)cc1)S(=O)(=O)c1ccc2c(c1)OCCO2`, the “hERG current change (%, negative = inhibition) at 1uM” value is reported as 13.1%.

For the compound `O=C(c1cnn(C(=O)COc2ccc(Cl)cc2)c1)c1ccccc1O`, the “hERG current change (%, negative = inhibition) at 1uM” value was 9.58%.

In the case of `Oc1ccc2c(c1)c1c3n2CCNC3CCC1` (stereo not drawn), the “hERG current change (%, negative = inhibition) at 1uM” value is 8.98%.

On to `Cc1ccc(-c2nn(-c3ccccc3)cc2C(=O)Nc2ccc(C(=O)O)cc2)cc1`, for which the “hERG current change (%, negative = inhibition) at 1uM” value was determined as 11.1%.

Regarding `COc1cc(C(=O)O[C@H]2CC(C)=CC[C@@]3(C)CC[C@@](O)(C(C)C)[C@H]23)ccc1O`, the “hERG current change (%, negative = inhibition) at 1uM” value worked out at 6.56%.

Consider `CCCc1cc(=O)[nH]c(SCc2cccc(C)c2)n1`, for which the “hERG current change (%, negative = inhibition) at 1uM” value was 19.1%.

`COc1cc(SC)ccc1C(=O)N(C)Cc1ccccc1`: the “hERG current change (%, negative = inhibition) at 1uM” value was -1.12%.

For the compound `COc1cccc(C(=O)NNC(=O)c2ccc(NS(=O)(=O)c3cccs3)cc2)c1OC`, the “hERG current change (%, negative = inhibition) at 1uM” value was 3.81%.

Turning to `COC(=O)C1=C(C)Nc2nc3ccccc3n2C1c1cc(OC)c(OC)c(OC)c1` (stereo not drawn), the “hERG current change (%, negative = inhibition) at 1uM” value amounted to 3.97%.

Regarding `CC(=O)c1ccc(NC(=O)Nc2cccc(Cl)c2)cc1`, the “hERG current change (%, negative = inhibition) at 1uM” value was found to be 11.4%.

For `O=C(NCC(=O)N1CCN(S(=O)(=O)c2ccc3c(c2)OCCO3)CC1)c1ccccc1Cl`, the “hERG current change (%, negative = inhibition) at 1uM” value was determined as 14.5%.

As for `Cc1nn(CCO)c(N)c1C1(O)C(=O)Nc2c(Cl)cc(Cl)cc21` (stereo not drawn), the “hERG current change (%, negative = inhibition) at 1uM” value is on record as 17.3%.

Turning to `CCOC(=O)C1CCN(C(=O)Nc2cc(Cl)cc(Cl)c2)CC1`, the “hERG current change (%, negative = inhibition) at 1uM” value turned out to be 4.53%.

Consider `Cn1c(Cc2cccs2)nnc1SC/C=C/c1ccccc1`, for which the “hERG current change (%, negative = inhibition) at 1uM” value is reported as 8.27%.

As for `O=C(CCN1C(=O)c2ccccc2C1=O)NNC(=O)c1ccc(Cl)cc1Cl`, the “hERG current change (%, negative = inhibition) at 1uM” value stood at 13.6%.

For the compound `Cc1cc(C(F)(F)F)nc(Nc2nc(C)c3ccccc3n2)n1`, the “hERG current change (%, negative = inhibition) at 1uM” value was found to be 15.3%.

As to `CC(C)N1CCc2c(sc(NC(=O)c3ccc4ccccc4c3)c2C(N)=O)C1.Cl`, the “hERG current change (%, negative = inhibition) at 1uM” value came to 4%.

With `O=C1C(NS(=O)(=O)c2ccc(Br)cc2)=C(N2CCCCC2)C(=O)c2ccccc21`, the “hERG current change (%, negative = inhibition) at 1uM” value is on record as 2.82%.

In the case of `Cc1nn(C)c(C)c1C(C)NC(=O)c1ccc(OC2CCN(Cc3ccccn3)CC2)cc1` (stereo not drawn), the “hERG current change (%, negative = inhibition) at 1uM” value came to 10.5%.

Regarding `C=CCc1cccc2cc(C(=O)Nc3cccc(C(=O)O)c3)c(=O)oc12`, the “hERG current change (%, negative = inhibition) at 1uM” value was 3.48%.

In the case of `CC(=O)Nc1ccc(Nc2nc(-c3sc(C)nc3C)cs2)cc1`, the “hERG current change (%, negative = inhibition) at 1uM” value turned out to be 12.1%.

With `NNC(=O)c1ccc(Cn2cc(Br)cn2)cc1`, the “hERG current change (%, negative = inhibition) at 1uM” value was found to be 3.77%.

On to `CCOc1ccc(N2C(=O)CC(NCCNc3ccc(C(=O)c4cccs4)cc3)C2=O)cc1` (stereo not drawn), for which the “hERG current change (%, negative = inhibition) at 1uM” value was -48.7%.

Regarding `Cn1c(C(=O)N2CCOCC2)cc2c(=O)n3ccccc3nc21`, the “hERG current change (%, negative = inhibition) at 1uM” value was 14.4%.

Take `COc1ccc(Nc2nc(N3CCCC3)nc(N3CCCC3)n2)c(OC)c1`: the “hERG current change (%, negative = inhibition) at 1uM” value is on record as -7.81%.

In the case of `COCCCN(C(=O)c1ccc(N2CCCC2=O)cc1)c1c(N)n(Cc2ccccc2)c(=O)[nH]c1=O`, the “hERG current change (%, negative = inhibition) at 1uM” value is given as 17.4%.

For the compound `COc1cc(C(=O)N/N=C/c2ccc(OC(=O)c3cccc(C)c3)cc2)ccc1O`, the “hERG current change (%, negative = inhibition) at 1uM” value is 13.5%.

With `O=C(Nc1ccc(Br)cc1)c1ccc(N2C(=O)C3CC=C(Cl)CC3C2=O)cc1` (stereo not drawn), the “hERG current change (%, negative = inhibition) at 1uM” value worked out at 10.9%.

In the case of `CCOC(=O)C1CCN(C(=O)c2cc(COc3ccc(OC)c4ccccc34)on2)CC1`, the “hERG current change (%, negative = inhibition) at 1uM” value amounted to 8.12%.

On to `CN(C)c1ccc(P(=O)(OC2CCCCC2)C(O)c2ccccn2)cc1` (stereo not drawn), for which the “hERG current change (%, negative = inhibition) at 1uM” value turned out to be 12.4%.

`Cn1c(=O)c2c(ncn2CC(=O)NC(C)(C)C)n(C)c1=O`: the “hERG current change (%, negative = inhibition) at 1uM” value came out at 12.2%.

Turning to `Cc1cc(Cl)ccc1NC(=S)NCCc1ccc(S(N)(=O)=O)cc1`, the “hERG current change (%, negative = inhibition) at 1uM” value amounted to 0.714%.

Regarding `Cl.Nc1ccc(Cc2ccccn2)cc1`, the “hERG current change (%, negative = inhibition) at 1uM” value came to 16.8%.

In the case of `CCCn1c(=O)c(C(=O)NCCCc2ccccc2)c(O)c2ccccc21`, the “hERG current change (%, negative = inhibition) at 1uM” value was determined as 17.8%.

For the compound `COc1ccc(CCN2CC(C(=O)N(C)CCOc3ccccc3)CCC2=O)cc1` (stereo not drawn), the “hERG current change (%, negative = inhibition) at 1uM” value was -34.3%.

`Cc1nn(C)c(Cl)c1S(=O)(=O)N[C@@H](c1ccccc1)[C@]1(C)C[C@H]1[C@@H](C)C(=O)Nc1ccc2ccccc2c1`: the “hERG current change (%, negative = inhibition) at 1uM” value stood at 19%.

On to `CC1CCC(C(C)C)C(OC(=O)Cn2nnc3c(cnn3-c3ccccc3)c2=O)C1` (stereo not drawn), for which the “hERG current change (%, negative = inhibition) at 1uM” value is given as 6.96%.

As for `COc1ccc(OC)c(C2N(c3cc(C)on3)C(=O)C3CCCN32)c1` (stereo not drawn), the “hERG current change (%, negative = inhibition) at 1uM” value is 12%.

Source of the values: publication PMC4336329 (PLoS ONE, 2015).
